Test results from patent US9642869B2, “Boronic acid derivatives and therapeutic uses thereof” (Rempex Pharmaceuticals, Inc., priority 2013, dated 2017).
Where two headings read alike, the source gives them in different places.

Test system: SHV-12 KP1010
Experiment: Aztreonam potentiation (MPC@4)
Type: cell-based

## O=C(CSc1nncs1)N[C@H]1Cc2cccc(C(=O)O)c2OB1O [Compound 7, (R)-3-(2-(1,3,4-thiadiazol-2-ylthio)acetamido)-2-hydroxy-3,4-dihydro-2H-benzo[e][1,2]oxaborinine-8-carboxylic acid]
  AZT MPC4 SHV-12 KP1010: X (key: X: MIC of less than 1 μg/mL; Y: MIC of 1 μg/mL to 10 μg/mL; Z: MIC of greater than 10 μg/mL)

## Nc1nnc(C(=O)N[C@H]2Cc3cccc(C(=O)O)c3OB2O)o1 [Compound 20, (R)-3-(5-amino-1,3,4-oxadiazole-2-carboxamido)-2-hydroxy-3,4-dihydro-2H-benzo[e][1,2]oxaborinine-8-carboxylic acid]
  AZT MPC4 SHV-12 KP1010: X (key: X: MIC of less than 1 μg/mL; Y: MIC of 1 μg/mL to 10 μg/mL; Z: MIC of greater than 10 μg/mL)

## O=C(CSC1CNC1)N[C@H]1Cc2cccc(C(=O)O)c2OB1O [Compound 22, (R)-3-(2-(azetidin-3-ylthio)acetamido)-2-hydroxy-3,4-dihydro-2H-benzo[e][1,2]oxaborinine-8-carboxylic acid]
  AZT MPC4 SHV-12 KP1010: X (key: X: MIC of less than 1 μg/mL; Y: MIC of 1 μg/mL to 10 μg/mL; Z: MIC of greater than 10 μg/mL)

## NC(=O)N[C@H]1Cc2cccc(C(=O)O)c2OB1O [Compound 6, (R)-2-hydroxy-3-ureido-3,4-dihydro-2H-benzo[e][1,2]oxaborinine-8-carboxylic acid]
  AZT MPC4 SHV-12 KP1010: Y (key: X: MIC of less than 1 μg/mL; Y: MIC of 1 μg/mL to 10 μg/mL; Z: MIC of greater than 10 μg/mL)

## CNC(=O)CC(=O)N[C@H]1Cc2cccc(C(=O)O)c2OB1O [Compound 21, (R)-2-hydroxy-3-(3-(methylamino)-3-oxopropanamido)-3,4-dihydro-2H-benzo[e][1,2]oxaborinine-8-carboxylic acid]
  AZT MPC4 SHV-12 KP1010: X (key: X: MIC of less than 1 μg/mL; Y: MIC of 1 μg/mL to 10 μg/mL; Z: MIC of greater than 10 μg/mL)

## O=C(N[C@H]1Cc2cccc(C(=O)O)c2OB1O)c1cncs1 [Compound 15, (R)-2-hydroxy-3-(thiazole-5-carboxamido)-3,4-dihydro-2H-benzo[e][1,2]oxaborinine-8-carboxylic acid]
  AZT MPC4 SHV-12 KP1010: X (key: X: MIC of less than 1 μg/mL; Y: MIC of 1 μg/mL to 10 μg/mL; Z: MIC of greater than 10 μg/mL)

## O=C(N[C@H]1Cc2cccc(C(=O)O)c2OB1O)c1cccnc1 [Compound 12, (R)-2-hydroxy-3-(nicotinamido)-3,4-dihydro-2H-benzo[e][1,2]oxaborinine-8-carboxylic acid]
  AZT MPC4 SHV-12 KP1010: X (key: X: MIC of less than 1 μg/mL; Y: MIC of 1 μg/mL to 10 μg/mL; Z: MIC of greater than 10 μg/mL)

## CN(C)C(=O)C(=O)N[C@H]1Cc2cccc(C(=O)O)c2OB1O [Compound 9, (R)-3-(2-(dimethylamino)-2-oxoacetamido)-2-hydroxy-3,4-dihydro-2H-benzo[e][1,2]oxaborinine-8-carboxylic acid]
  AZT MPC4 SHV-12 KP1010: X (key: X: MIC of less than 1 μg/mL; Y: MIC of 1 μg/mL to 10 μg/mL; Z: MIC of greater than 10 μg/mL)

## CSCC(=O)N[C@H]1Cc2cccc(C(=O)O)c2OB1O [Compound 13, (R)-2-hydroxy-3-(2-(methylthio)acetamido)-3,4-dihydro-2H-benzo[e][1,2]oxaborinine-8-carboxylic acid]
  AZT MPC4 SHV-12 KP1010: X (key: X: MIC of less than 1 μg/mL; Y: MIC of 1 μg/mL to 10 μg/mL; Z: MIC of greater than 10 μg/mL)

## O=C(CSC(F)F)N[C@H]1Cc2cccc(C(=O)O)c2OB1O [Compound 3, (R)-3-(2-(difluoromethylthio)acetamido)-2-hydroxy-3,4-dihydro-2H-benzo[e][1,2]oxaborinine-8-carboxylic acid]
  AZT MPC4 SHV-12 KP1010: X (key: X: MIC of less than 1 μg/mL; Y: MIC of 1 μg/mL to 10 μg/mL; Z: MIC of greater than 10 μg/mL)

## Nc1nnc(C(=O)N[C@H]2Cc3cccc(C(=O)O)c3OB2O)s1 [Compound 19, (R)-3-(5-amino-1,3,4-thiadiazole-2-carboxamido)-2-hydroxy-3,4-dihydro-2H-benzo[e][1,2]oxaborinine-8-carboxylic acid]
  AZT MPC4 SHV-12 KP1010: X (key: X: MIC of less than 1 μg/mL; Y: MIC of 1 μg/mL to 10 μg/mL; Z: MIC of greater than 10 μg/mL)

## CSC(=O)N[C@H]1Cc2cccc(C(=O)O)c2OB1O [Compound 11, (R)-2-hydroxy-3-(methylthiocarbonylamino)-3,4-dihydro-2H-benzo[e][1,2]oxaborinine-8-carboxylic acid]
  AZT MPC4 SHV-12 KP1010: X (key: X: MIC of less than 1 μg/mL; Y: MIC of 1 μg/mL to 10 μg/mL; Z: MIC of greater than 10 μg/mL)

## O=CN[C@H]1Cc2cccc(C(=O)O)c2OB1O [Compound 4, (R)-3-formamido-2-hydroxy-3,4-dihydro-2H-benzo[e][1,2]oxaborinine-8-carboxylic acid]
  AZT MPC4 SHV-12 KP1010: X (key: X: MIC of less than 1 μg/mL; Y: MIC of 1 μg/mL to 10 μg/mL; Z: MIC of greater than 10 μg/mL)

## [N-]=[N+]=NCC(=O)N[C@H]1Cc2cccc(C(=O)O)c2OB1O [Compound 8, (R)-3-(2-azidoacetamido)-2-hydroxy-3,4-dihydro-2H-benzo[e][1,2]oxaborinine-8-carboxylic acid]
  AZT MPC4 SHV-12 KP1010: X (key: X: MIC of less than 1 μg/mL; Y: MIC of 1 μg/mL to 10 μg/mL; Z: MIC of greater than 10 μg/mL)

## O=C(N[C@H]1Cc2cccc(C(=O)O)c2OB1O)c1cncnc1 [Compound 18, (R)-2-hydroxy-3-(pyrimidine-5-carboxamido)-3,4-dihydro-2H-benzo[e][1,2]oxaborinine-8-carboxylic acid]
  AZT MPC4 SHV-12 KP1010: X (key: X: MIC of less than 1 μg/mL; Y: MIC of 1 μg/mL to 10 μg/mL; Z: MIC of greater than 10 μg/mL)

## O=C(CSC(F)(F)F)N[C@H]1Cc2cccc(C(=O)O)c2OB1O [Compound 1, (R)-2-hydroxy-3-(2-(trifluoromethylthio)acetamido)-3,4-dihydro-2H-benzo[e][1,2]oxaborinine-8-carboxylic acid]
Minimum BLI concentration inhibiting growth with 4 μg/mL aztreonam
  AZT MPC4 SHV-12 KP1010: X (MIC of less than 1 μg/mL)

## Nc1nnc(SCC(=O)N[C@H]2Cc3cccc(C(=O)O)c3OB2O)s1 [Compound 5, (R)-3-(2-(5-amino-1,3,4-thiadiazol-2-ylthio)acetamido)-2-hydroxy-3,4-dihydro-2H-benzo[e][1,2]oxaborinine-8-carboxylic acid]
  AZT MPC4 SHV-12 KP1010: X (key: X: MIC of less than 1 μg/mL; Y: MIC of 1 μg/mL to 10 μg/mL; Z: MIC of greater than 10 μg/mL)

## O=C(N[C@H]1Cc2cccc(C(=O)O)c2OB1O)c1cncc(F)c1 [Compound 14, (R)-3-(5-fluoronicotinamido)-2-hydroxy-3,4-dihydro-2H-benzo[e][1,2]oxaborinine-8-carboxylic acid]
  AZT MPC4 SHV-12 KP1010: X (key: X: MIC of less than 1 μg/mL; Y: MIC of 1 μg/mL to 10 μg/mL; Z: MIC of greater than 10 μg/mL)

## NC(=O)C(=O)N[C@H]1Cc2cccc(C(=O)O)c2OB1O [Compound 17, (R)-3-(2-amino-2-oxoacetamido)-2-hydroxy-3,4-dihydro-2H-benzo[e][1,2]oxaborinine-8-carboxylic acid]
  AZT MPC4 SHV-12 KP1010: X (key: X: MIC of less than 1 μg/mL; Y: MIC of 1 μg/mL to 10 μg/mL; Z: MIC of greater than 10 μg/mL)

## O=C(Cc1cccs1)N[C@H]1Cc2cccc(C(=O)O)c2OB1O [CPD A, reference compound]
  AZT MPC4 SHV-12 KP1010: X (key: X: MIC of less than 1 μg/mL; Y: MIC of 1 μg/mL to 10 μg/mL; Z: MIC of greater than 10 μg/mL)

## Cn1nnnc1SCC(=O)N[C@H]1Cc2cccc(C(=O)O)c2OB1O [Compound 2, (R)-2-hydroxy-3-(2-(1-methyl-1H-tetrazol-5-ylthio)acetamido)-3,4-dihydro-2H-benzo[e][1,2]oxaborinine-8-carboxylic acid]
  AZT MPC4 SHV-12 KP1010: X (key: X: MIC of less than 1 μg/mL; Y: MIC of 1 μg/mL to 10 μg/mL; Z: MIC of greater than 10 μg/mL)

## O=C(COCc1ccccc1)N[C@H]1Cc2cccc(C(=O)O)c2OB1O [CPD B, reference compound]
  AZT MPC4 SHV-12 KP1010: Y (key: X: MIC of less than 1 μg/mL; Y: MIC of 1 μg/mL to 10 μg/mL; Z: MIC of greater than 10 μg/mL)

## CN(C)C(=O)CC(=O)N[C@H]1Cc2cccc(C(=O)O)c2OB1O [Compound 10, (R)-3-(3-(dimethylamino)-3-oxopropanamido)-2-hydroxy-3,4-dihydro-2H-benzo[e][1,2]oxaborinine-8-carboxylic acid]
  AZT MPC4 SHV-12 KP1010: X (key: X: MIC of less than 1 μg/mL; Y: MIC of 1 μg/mL to 10 μg/mL; Z: MIC of greater than 10 μg/mL)

## NC(=O)CC(=O)N[C@H]1Cc2cccc(C(=O)O)c2OB1O [Compound 16, (R)-3-(3-amino-3-oxopropanamido)-2-hydroxy-3,4-dihydro-2H-benzo[e][1,2]oxaborinine-8-carboxylic acid]
  AZT MPC4 SHV-12 KP1010: X (key: X: MIC of less than 1 μg/mL; Y: MIC of 1 μg/mL to 10 μg/mL; Z: MIC of greater than 10 μg/mL)
